Source: ChEMBL document CHEMBL1201862, “PubChem BioAssay data set” (2004)
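Each compound was tested at five concentrations against cells in 96-well plates for 48 hours. GI50: concentration for 50% inhibition of growth.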 Active and inactive are the calls of the source. Rule as the data show it: active = GI50 up to about 1.1 µM and inactive = higher.

system: NCI-H322M; assay: NCI-60 cell line screen, 48 h

Compound	GI50
C/C1=C/C(C)CC(C)OC(=O)C(C)NC(=O)C(Cc2ccc(O)c(I)c2)N(C)C(=O)CNC(=O)C(C)C1 (centres undefined)	inactive: 1.18 µM
CC(=O)C(=[N+]=[N-])C(=O)OC(C)(C)C#N	inactive: > 10 µM
CC(C)(C)OC(=O)CN1CCNCCN(CC(=O)OC(C)(C)C)CC1	inactive: > 100 µM
C[N+](C)(C)CC1CCC(C[N+](C)(C)C)C1=O (centres undefined)	inactive: 16.7 µM
O=C(C/C(CCC(=O)N(Cc1ccccc1)Cc1ccccc1)=N/Nc1ccc([N+](=O)[O-])cc1[N+](=O)[O-])c1ccccc1	inactive: > 100 µM
C=C(C(=O)O)[C@@H]1C[C@@H](OC(C)=O)[C@]2(C)CC/C=C(\C)CCC[C@H](C)[C@H](O)[C@@H]1O2	inactive: > 100 µM
N#Cc1c(N2CCCC2)nsc1Nc1ccccc1	inactive: > 100 µM
O=C(NC(=S)Nc1ccccc1)c1ccc([N+](=O)[O-])cc1	inactive: > 100 µM
S=c1[nH]c(=S)c2nnn(-c3ccccc3)c2[nH]1	inactive: > 100 µM
NC(=O)C/C=C/CC(N)=O	inactive: > 100 µM
CCOC(=O)C(=O)CC(=O)C(Br)C(Br)c1ccc(Cl)cc1 (centres undefined)	inactive: > 100 µM
CC1=C(C(=O)Nc2ccccc2)C(c2cc(Cl)cc(Cl)c2)C(C(=O)Nc2ccccc2)=C(C)N1	inactive: 12.5 µM
Cc1ccccc1NC(=O)c1cc2cc(/N=N/c3ccccc3C(=O)O)ccc2oc1=O	inactive: 14.9 µM
CC(C)OP(=O)(OC(C)C)/C(=N/Nc1ccc([N+](=O)[O-])cc1)NCCN/C(=N\Nc1ccc([N+](=O)[O-])cc1)P(=O)(OC(C)C)OC(C)C	inactive: > 100 µM
OC(NN=C1CCCC1)(C(F)(F)Cl)C(F)(F)Cl	inactive: > 10 µM
Nc1cccc(S(=O)(=O)NCC(=O)O)c1	inactive: > 100 µM
O=C(O)CSCc1cc2c(O)c(c1)Cc1cc(CSCC(=O)O)cc(c1O)Cc1cc(CSCC(=O)O)cc(c1O)Cc1cc(CSCC(=O)O)cc(c1O)C2	inactive: > 100 µM
C[C@]12C(=O)OC[C@H](c3ccccc3)N1C(=O)N(Cc1ccccc1)[C@@H]2CO	inactive: > 100 µM
CCCCCCOc1ccc(C(=O)NO)cc1	inactive: 16 µM
O=C(C[C@H](NC(=O)OCc1ccccc1)C(=O)NC1Cc2ccccc2OC1=O)OCc1ccccc1 (some centres undefined)	inactive: > 100 µM
c1cnc2c(c1)ccc1cccnc12	inactive: 4.15 µM
Cc1cnc(SCCN2CCN(C)CC2)nc1-c1cc2ccccc2s1	inactive: 17.9 µM

Compound	GI50
O=CN1CCN(C(=O)c2cc(Cl)cc(Cl)c2)C1=S	inactive: 19.8 µM
CC(C)N1CCOC(c2ccc(O)c(O)c2)C1 (centres undefined)	inactive: > 100 µM
CCOC(=O)C1=NN(c2ccccc2)C(=O)/C1=C\NC(=S)C(N)=S	inactive: 56.8 µM
Oc1cccc2cc(Cl)cnc12	inactive: 40.7 µM
N#Cc1cccc(C2SCc3nc4ccccc4n32)c1 (centres undefined)	inactive: > 100 µM
O=C1N/C(=N/N=C/c2c[nH]c3ccccc23)N/C1=C\c1cccs1	inactive: > 100 µM
COC(=O)CNC(=O)C(CSC(=O)OCC1c2ccccc2-c2ccccc21)NC(=O)CCC(NC(=O)OCC1c2ccccc2-c2ccccc21)C(=O)OC (centres undefined)	inactive: 24.4 µM
CC(=O)N(CN1C(=O)CCC1C(=O)O)c1ccccc1 (centres undefined)	inactive: > 56.1 µM
CCC1=C(C(C)=O)[C@@H]2CCCCC[C@@H](C(=O)OC)C2C1=O (some centres undefined)	inactive: > 100 µM
Cc1cc(N(CCC#N)CCC#N)ccc1/C=N\c1ccc(C(=O)NN2C(=O)/C(=C/c3ccc(N(CCC#N)CCC#N)cc3)N=C2c2cc([N+](=O)[O-])ccc2Cl)cc1	inactive: > 100 µM
Cc1nnc(Nc2ccc(Cl)cc2)o1	inactive: 8.81 µM
COc1cc(C2c3cc4c(cc3[C@@H](Nc3ccc([N+](=O)[O-])cc3)C3COC(=O)[C@H]23)OCO4)cc(OC)c1O (some centres undefined)	inactive: 6.5 µM
NC1=NC2(COC(c3ccccc3)(c3ccccc3)c3ccccc3)OC(COC(c3ccccc3)(c3ccccc3)c3ccccc3)C(O)C2O1 (centres undefined)	inactive: > 100 µM
CCOC(CN(C)C(=O)OCC(Cl)(Cl)Cl)OCC	inactive: > 100 µM
Cc1cccc(Cl)c1NC(N)=S	inactive: > 100 µM
CN(C)/C=N/S(=O)(=O)c1nn2c(C=O)c(-c3ccc(-c4ccc([N+](=O)[O-])cc4)o3)nc2s1	inactive: 11.7 µM
COC(C/C=C\C=C\CC/C=C/CC(C)/C=C/C(=C\C(=O)O)CC(=O)O)/C(C)=C\C=C(/C)C(=O)O (centres undefined)	inactive: > 100 µM
N#CCCc1nc2ccc(Br)cc2c(=O)n1CCO	inactive: > 100 µM
C/C=C(/CBr)CCC(Br)C(C)(C)Cl.C/C=C(\CBr)CCC(Br)C(C)(C)Cl (centres undefined)	inactive: > 10 µM
COc1ccc(C[C@H]2COC(=O)[C@@H]2Cc2ccccc2)cc1OC	inactive: > 100 µM
C/C(C=O)=C/[C@@]1(C)O[C@@H](C)[C@@](C)(O)[C@@H]1O	inactive: > 100 µM
N=c1oc2ccc(Cl)cc2cc1C(=O)Nc1ccccc1	inactive: > 100 µM

Compound	GI50
N#C/C(=C\c1ccc(O)cc1)C(N)=O	inactive: > 100 µM
COc1ccc(C2C(C(=O)O)=C(COC(C)=O)Oc3cc4c(cc32)OCO4)cc1 (centres undefined)	inactive: > 100 µM
COCCOCC(=O)N(CCn1ccc(NC(c2ccccc2)(c2ccccc2)c2ccccc2)nc1=O)CCn1cnc2nc(N)[nH]c(=O)c21	inactive: > 100 µM
CC(=O)N1C(Nc2cnc3ccccc3c2)CCN1c1ccccc1 (centres undefined)	inactive: > 10 µM
CSC(=S)NN=C1CCCCC1	inactive: 13.2 µM
O=C(O)CSCC(=O)O	inactive: > 100 µM
Oc1ccccc1/C=N/c1ccccc1/N=C/c1ccccc1O	inactive: 78.7 µM
CC1CC[C@@]23CCC4(C)[C@@](C=CC5[C@@]6(C)CCC(=O)C(C)(C)C6CC[C@]54C)(OC2=O)[C@@H]3[C@H]1C (some centres undefined)	inactive: 21.7 µM
C/C(O)=C/C(=O)c1[nH]c(C(=O)O)cc1C1CCN(Cc2ccccc2)C1=O (centres undefined)	inactive: 26 µM
O=[N+]([O-])c1nccn1CCCNc1ccnc2cc(Cl)ccc12	inactive: 4.74 µM
O=c1[nH]c(=O)n(C/C=C/CO)nc1Br	inactive: > 100 µM
COc1ccc(OC)c(CC(=O)c2ccc(O)c(C(=O)NCCc3ccc(F)cc3)c2)c1	inactive: 3.33 µM
O=C(N[C@H]1c2ccsc2/C(=N/O)[C@H]1O)C(F)(F)F	inactive: > 100 µM
C=C[C@]1(C)CC[C@]2(C)C(CC[C@@]3(C)C2C[C@H](O)[C@H](O)[C@@]3(C)O)C1 (some centres undefined)	inactive: > 100 µM
CCOP(=O)(OCC)/C(C#N)=C/c1cccn1N(C)C	inactive: > 100 µM
Cc1c2c(cc3c1C(=O)C(O)=C([C@@H](C)CO)C3=O)C(C)(C)CCC2	inactive: 28.3 µM
C=CC1=C(C)/C(=C/C2=NC(=C\c3[nH]c(CC4NC(=O)C(C)/C4=C\C)c(C)c3CCC(=O)O)/C(CC(=O)O)=C2C)NC1=O (centres undefined)	inactive: > 100 µM
O=C(/C=C(\N=P(c1ccccc1)(c1ccccc1)c1ccccc1)C(F)(F)C(F)(F)C(F)(F)C(F)(F)C(F)(F)C(F)(F)C(F)(F)F)c1ccccc1	inactive: > 100 µM
CCOC(=O)c1cc(/C=C/C(C)=C/C(=O)OC)oc1-c1ccccc1	inactive: > 100 µM
C=CC1(c2ccc(Cl)c(Cl)c2)OCCO1	inactive: > 100 µM
